Laboratory results taken from PubChem BioAssay (Tox21).
Where “and” joins values, the source holds several entries; their conditions need not be identical. Equal entries are not always repeated. The inconclusive results got no clear call from the source; some entries with a clear call stand among them for comparison. For part of these data: Potencies beside an inconclusive call are fits to weak or partial responses and may not hold up. Calls of active or inactive are those of the source. Unless noted, the call rests on the fitted dose curve; in most records, active means well fitted curve in the direction sought with a large enough effect in the repeat runs; inconclusive means weak or mixed curves; inactive means no such curve, though single readings can be large; an effect the other way counts as inactive or inconclusive.

Assays:
[1] = qHTS assay to identify small molecule that activate the aryl hydrocarbon receptor (AhR) signaling pathway - cell viability counter screen (AID 743086); further: nearly all actives have a fitted effect of over 45% in size; further: potency means the concentration at half of the fitted maximal effect;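 on viability change, negative = cytotoxic: HepG2 liver cells carrying the AhR DRE luciferase reporter; on the % scale 0 is the no-effect control and ±100 the full control effect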
Summary of the method: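 HepG2-AhR-luc (HG2L7.5c1) cells, 4000/well, were preincubated 5 h at 37C, exposed to compound in qHTS format for 24 hr at 37C, then given CellTiter-Fluor for 30 min; viability was read as fluorescence in the reporter wells.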

[2] = molecular target: Peroxisome proliferator-activated receptor gamma (Homo sapiens) (UniProt P37231); assay: qHTS assay to identify small molecule antagonists of the peroxisome proliferator-activated receptor gamma (PPARg) signaling pathway (AID 743191; calls by dose curve; further: on the % scale 0 is the no-effect control and ±100 the full control effect; nearly all actives have a fitted effect of over 30% in size); settings: HEK293H PPARg-UAS-bla, beta-lactamase ratio, antagonist, 17 h; ratio activity, negative = inhibition: at 62.6 µM (top of the series) unless noted
UniProt P37231, sequence (P37231 whole entry, looked up): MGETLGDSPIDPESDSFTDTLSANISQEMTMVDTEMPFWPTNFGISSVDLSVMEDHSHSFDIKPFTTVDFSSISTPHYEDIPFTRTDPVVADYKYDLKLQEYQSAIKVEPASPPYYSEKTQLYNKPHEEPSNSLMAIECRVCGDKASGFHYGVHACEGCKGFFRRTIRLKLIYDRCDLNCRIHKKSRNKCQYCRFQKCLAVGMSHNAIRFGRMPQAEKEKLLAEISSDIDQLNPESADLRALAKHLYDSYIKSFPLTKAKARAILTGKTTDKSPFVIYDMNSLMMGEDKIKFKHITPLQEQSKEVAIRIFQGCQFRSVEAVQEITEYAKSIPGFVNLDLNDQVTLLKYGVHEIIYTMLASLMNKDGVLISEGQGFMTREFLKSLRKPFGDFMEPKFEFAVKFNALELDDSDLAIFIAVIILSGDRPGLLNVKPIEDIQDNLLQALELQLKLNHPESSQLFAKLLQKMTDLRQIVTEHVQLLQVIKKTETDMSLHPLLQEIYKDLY
Summary of the method: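 GeneBLAzer PPARg UAS-bla HEK293H cells carrying a UAS-driven beta-lactamase reporter were plated at 3000 cells/well, preincubated 5 h at 37C, then given compound for 17 h at 37C; LiveBLAzer B/G FRET substrate was read after 1 h at room temperature.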

[3] = qHTS assay for small molecule agonists of the antioxidant response element (ARE) signaling pathway - cell viability counter screen (AID 743203; calls by dose curve; further: on the % scale 0 is the no-effect control and ±100 the full control effect; nearly all actives have a fitted effect of over 55% in size); settings: ARE-bla HepG2 viability, CellTiter-Glo luminescence, 16 h; viability change, negative = cytotoxic: at 73.3 µM (top of the series)
Summary of the method: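 Viability counter screen: stably transfected ARE-bla HepG2 line, 16 hrs compound exposure at 37C/5% CO2, ATP-based CellTiter-Glo luminescence measured in the reporter wells.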

[4] = qHTS assay for small molecule agonists of the antioxidant response element (ARE) signaling pathway (AID 743202; active means well fitted activation curve with a large enough effect in the signal ratio in the repeat runs, not every such curve was filed as active; inconclusive means weak or mixed curves, or effect the other way; inactive means no such curve, though single readings can be large or run the other way; the % refers to the signal ratio; further: potency means the concentration at half of the fitted maximal effect; on activation: on the % scale 0 is the no-effect control and ±100 the full control effect); settings: HepG2 ARE-bla reporter, beta-lactamase FRET, 16 h; activation: at 73.3 µM (top of the series) unless noted
Summary of the method: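 Steps: seed ARE-bla HepG2 cells (2,000/well); incubate 5 h at 37 C; add compounds by pin tool; incubate 16 h at 37 C; add FRET substrate; read fluorescence after 2 h at RT.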

[5] = qHTS assay for small molecule activators of the heat shock response signaling pathway (AID 743210; active means well fitted activation curve with a large enough effect in the signal ratio in the repeat runs, with a control signal flat, not every such curve was filed as active; inconclusive means weak or mixed curves; the % refers to the signal ratio; further: potency means the concentration at half of the fitted maximal effect); settings: HeLa HSE-bla reporter, beta-lactamase ratio, 5 h; activation: at 62.6 µM (top of the series) unless noted
Summary of the method: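 Activation of heat shock element-controlled beta-lactamase expression is measured in HeLa cells by LiveBLAzer FRET fluorescence, with compound exposure lasting 5 h at 37 C and substrate loading 2.5 h at room temperature.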

[6] = qHTS assay to identify small molecule agonists of the peroxisome proliferator-activated receptor delta (PPARd) signaling pathway - cell viability counter screen (AID 743211); settings: PPARd-bla HEK293H viability, CellTiter-Glo luminescence, 17 h; activity change, negative = cytotoxicity: at 62.6 µM (top of the series); further: nearly all actives have a fitted effect of over 55% in size; further: potency means the concentration at half of the fitted maximal effect
Summary of the method: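 PPARd-bla HEK293H cells (3000/well) were pre-incubated 5 h at 37 C, then exposed to compound for 17 h at 37 C. After 2 h with LiveBLAzer substrate, CellTiter-Glo was added to the same wells; luminescence read after 30 min at room temperature.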

[7] = molecular target: Peroxisome proliferator-activated receptor gamma (Homo sapiens) (UniProt P37231); assay: qHTS assay to identify small molecule agonists of the peroxisome proliferator-activated receptor gamma (PPARg) signaling pathway (AID 743094; active means well fitted activation curve with a large enough effect in the signal ratio in the repeat runs, not every such curve was filed as active; inconclusive means weak or mixed curves, or effect the other way; inactive means no such curve, though single readings can be large or run the other way; the % refers to the signal ratio; further: on the % scale 0 is the no-effect control and ±100 the full control effect); settings: HEK293H PPARg-UAS-bla, beta-lactamase FRET ratio, 17 h; activation: at 57 µM (top of the series) unless noted
Summary of the method: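 Reporter activation was scored by fluorescence of cleaved LiveBLAzer B/G substrate (1 h, room temperature) in PPARg-bla HEK293H cells previously treated 17 h at 37C with DMSO-dissolved compounds.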

[8] = qHTS assay to identify small molecule antagonists of the peroxisome proliferator-activated receptor gamma (PPARg) signaling pathway - cell viability counter screen (AID 743194); settings: PPARg-bla HEK293H viability, CellTiter-Glo luminescence, 17 h, co-treated with 50 nM rosiglitazone; activity change, negative = cytotoxicity: at 62.6 µM (top of the series) unless noted; further: nearly all actives have a fitted effect of over 55% in size; further: potency means the concentration at half of the fitted maximal effect; on activity change, negative = cytotoxicity: on the % scale 0 is the no-effect control and ±100 the full control effect
Summary of the method: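 PPARg-UAS-bla HEK293H cells were plated, rested 5 h at 37 C, then treated with compounds plus rosiglitazone (50 nM final) for 17 h at 37 C; viability was then read by CellTiter-Glo luminescence after 30 min at room temperature.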

[9] = qHTS assay for small molecule activators of the heat shock response signaling pathway - cell viability counter screen (AID 743209); settings: HSE-bla HeLa viability, CellTiter-Glo luminescence, 5 h; activity change, negative = cytotoxicity: at 62.6 µM (top of the series) unless noted; further: on the % scale 0 is the no-effect control and ±100 the full control effect; nearly all actives have a fitted effect of over 50% in size
Summary of the method: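 Viability of HSE-bla HeLa cells is measured with CellTiter-Glo in the wells already used for the reporter read. Compound exposure lasts 5 h at 37 C, and luminescence is read after 30 min at room temperature.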
Tags describe the fitted curve by direction and shape or compound fluorescence and quenching.

## CN1CCCCC1CCN1c2ccccc2Sc2ccc(S(C)=O)cc21 (stereo not given)
[1]
  Potency: inconclusive: 26.6 µM [falling, partial curve]
[2]
  Potency: inactive

## Cc1c(C(=O)O)c(O)cc2c1C(=O)c1c(O)c([C@@H]3O[C@H](CO)[C@@H](O)[C@H](O)[C@H]3O)c(O)c(O)c1C2=O
[1]
  Potency: active: 26.6 µM and active: 21.7 µM
[3]
  Potency: inactive

## C[C@@]12CCC[C@H]1[C@@H]1CC[C@H]3C[C@@H](O)CC[C@]3(C)[C@H]1CC2
[1]
  Potency: inconclusive: 33.5 µM [rising, single point]
[4]
  Potency: inactive
[5]
  Potency: inconclusive: 0.335 µM [fluorescent, full curve, poor fit]

## CCOC(=O)[C@H](CCc1ccccc1)N[C@@H](C)C(=O)N1CCC[C@H]1C(=O)O
[1]
  Potency: inconclusive: 13.3 µM [rising, partial curve, poor fit]
[2]
  ratio activity, negative = inhibition: inconclusive: 11.9%
[4]
  activation: inconclusive: -6.57%
[6]
  Potency: inconclusive: 29.8 µM [cytotoxic, partial curve, poor fit]

## Cc1ccc2nc(N)[nH]c(=O)c2c1Sc1ccncc1
[1]
  Potency: inconclusive: 29.8 µM [falling, single point]
[4]
  Potency: inconclusive: 8.41 µM [rising, partial curve]

## NC(=O)N(O)[C@@H]1COc2cc(OCc3ccccc3)ccc21
[1]
  Potency: inconclusive: 17.2 µM [rising, partial curve, poor fit]
[4]
  Potency: inactive

## CCC(COC(=O)CCS)(COC(=O)CCS)COC(=O)CCS
[1]
  Potency: inactive
[4]
  Potency: inconclusive: 24.3 µM [falling, partial curve, poor fit]
[5]
  Potency: inconclusive: 49 µM [falling, partial curve, poor fit]

## O=C1CCCCCCCCCCOCCCCO1
[7]
  Potency: inactive

## Sc1nc(S)nc(S)n1
[1]
  Potency: inconclusive: 14.9 µM [rising, partial curve, poor fit]
[8]
  Potency: inactive
[4]
  activation: inconclusive: 19.9%
[6]
  Potency: inactive

## Cc1c(-c2ccc(O)cc2)n(Cc2ccc(OCCN3CCCCCC3)cc2)c2ccc(O)cc12
[1]
  Potency: inconclusive: 23.7 µM [falling, partial curve]
[8]
  Potency: active: 29.8 µM
[6]
  Potency: active: 26.6 µM

## O=[N+]([O-])c1nccn1CO[C@@H](CO)[C@H](O)CO
[1]
  Potency: inconclusive: 37.6 µM [rising, partial curve, poor fit]
[4]
  Potency: inactive

## C[C@@H]1O[C@@H](OC[C@H]2O[C@@H](Oc3c(-c4ccc(O)c(O)c4)oc4cc(O)cc(O)c4c3=O)[C@H](O)[C@@H](O)[C@@H]2O)[C@H](O)[C@H](O)[C@H]1O
[1]
  Potency: inconclusive: 77.5 µM [falling, single point]
[4]
  Potency: inconclusive: 616 nM [falling, partial curve, poor fit] and inconclusive: 4.22 µM [falling, partial curve, poor fit]

## CCOC(=O)/C=C\C(=O)OCC
[1]
  Potency: inactive
[4]
  Potency: inconclusive: 8.79 µM [rising, partial curve]

## CN1CCN(C2=Nc3cc(F)ccc3Cc3ccccc32)CC1
[1]
  Potency: inconclusive: 18.8 µM [falling, partial curve]
[4]
  activation: inconclusive: -10.6%
[6]
  Potency: inconclusive: 7.5 µM [cytotoxic, single point]

## CCOC(=O)CCC(=O)OCC
[1]
  Potency: inactive
[4]
  Potency: inactive
[5]
  Potency: inconclusive: 61.6 µM

## CCCCCCCC
[7]
  activation: inconclusive: -11.3%

## CCN(C(=O)c1cc(C)cc(OC[C@H](C)Nc2ccncc2)c1)C(C)C
[1]
  Potency: inconclusive: 2.7 µM [rising, partial curve, poor fit]
[4]
  activation: inconclusive: 0.517%

## CN1CC(=O)N/C1=N/C(=O)Nc1cccc(Cl)c1
[1]
  Potency: inconclusive: 33.5 µM [falling, partial curve, poor fit]
[4]
  Potency: inactive

## Nc1ccc(NCCO)c([N+](=O)[O-])c1
[1]
  Potency: inconclusive: 68.6 µM [falling, single point]
[4]
  Potency: inconclusive: 38.6 µM [falling, partial curve, poor fit]

## O=C(c1ccc(O)cc1)c1ccc(Cl)cc1
[1]
  Potency: inactive
[4]
  Potency: inconclusive: 22.2 µM

## Cc1[nH]cnc1C[C@H]1CCc2c(C)c3ccccc3n2C1=O
[1]
  Potency: inconclusive: 33.5 µM [falling, partial curve]
[8]
  Potency: active: 19 µM
[4]
  Potency: inconclusive: 15 µM [rising, full curve, poor fit]
[5]
  Potency: inconclusive: 38 µM [falling, partial curve]
[6]
  Potency: inconclusive: 10.7 µM [cytotoxic, partial curve, poor fit]

## CN[C@@H]1[C@H](O)[C@H](NC)[C@H]2O[C@@]3(O)C(=O)C[C@@H](C)O[C@H]3O[C@@H]2[C@H]1O
[7]
  Potency: inactive

## O=C(O)CCCc1c[nH]c2ccccc12
[7]
  Potency: inactive

## CC(CC(=O)O)CC(C)(C)C (stereo not given)
[1]
  Potency: inactive
[2]
  ratio activity, negative = inhibition: inconclusive: 3.03%
[9]
  Potency: inactive

## CC[C@H]1OC(=O)[C@H](C)[C@@H](O[C@H]2C[C@@](C)(OC)[C@@H](O)[C@H](C)O2)[C@H](C)[C@@H](O[C@@H]2O[C@H](C)C[C@H](N(C)C)[C@H]2O)[C@](C)(O)C[C@@H](C)/C(=N\OCOCCOC)[C@H](C)[C@@H](O)[C@]1(C)O
[1]
  Potency: inconclusive: 16.1 µM [falling, full curve]
[2]
  ratio activity, negative = inhibition: inconclusive: 16%
[5]
  Potency: inconclusive: 32.4 µM [activator, single point]
